Data taken from the supplement of paper PMC11417369.
This is one part of the list.

System: PfHDP1 homeodomain (GST-tagged)
Test: gcPBM binding intensity (ln(normalized median fluorescence intensity)); higher = stronger DNA binding
Method in brief: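 GST-tagged P. falciparum DNA-binding domains, expressed in E. coli (about 25 μg on average), were applied for 1 h to an Agilent 4 × 180k array of primer-extended double-stranded 36-bp intergenic genomic probes plus negative controls. The binding buffer was 1× PBS with 1% milk, 0.2 mg/ml BSA, 0.5% salmon testes DNA and 0.03% Triton X-100. Bound protein was detected with Alexa488 anti-GST antibody and scanned at 488 nm. Binding intensity is the highest Masliner-normalised natural-log median intensity across replicate spots of either probe orientation.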

Row | Sequence | gcPBM binding intensity (ln)
1 | TTATTTCAAAGTTGTTGTACAAAAATATATTTATAA [XGTACX_site5226] | 6.9
2 | AAGAAAAAGATGCGCATACACACAGATGAATAACAA [CACACA_site1627] | 7.68
3 | TTTCTTTTTTAAATTAAAATTTTTTTTTTTTTCGGT [TGCATGCA_negctrl_site52] | 6.11
4 | AAAGGTGTATTTAATACACACGTGTCATTAAAATTG [CACACA_site4508] | 6.66
5 | TATATAAATTATGTGAGTACATAATTTAGAAGGAAC [XGTACX_site2807] | 6.64
6 | AAAAAAATAATGTACACACACATATATGTTTATATA [CACACA_site6234] | 6.7
7 | AATTAAAAAGTTTTTAATGTTTTTAATTTTTTCCAC [XGTACX_negctrl_site423] | 5.99
8 | TTTCGTTGTGTATTTTGTACATATTTTTAATTATAT [XGTACX_site6687] | 7.08
9 | TCCTTTTGAACCCTTTTTCTCACAAGACCTTTATAT [TGCATGCA_negctrl_site413] | 6.57
10 | AATATAAATATAAATTGTACTTAAAAATTTCACGCA [XGTACX_site5234] | 5.95
11 | TTAAAAAACTATAATACACACCAAAAATATGCACAT [CACACA_site7079] | 10.3
12 | CTTTTTTGTAATAACACACACACAAACAGAAAAAAT [CACACA_site2075] | 7.35
13 | ATAAAATATCAATACCGTACACAAGCAGGTAAAATA [XGTACX_site3719] | 6.21
14 | ATTAATATTTAGACTTGTACATATATAATATATGTC [XGTACX_site3766] | 6.41
15 | TTTATATATTTTAGGAGTACATTAAATTATACCTTA [XGTACX_site5600] | 6.03
16 | TGTATATATATTTATGCATGCTGTGTGTATTCTTTT [TGCATGCA_site74] | 7.08
17 | AATAAAAAAAAAATAAATTTAATAATAATAATAAAA [CACACA_negctrl_site569] | 6.46
18 | AAAAAAAAAAAAAAAACACACAGAAATATATATATA [CACACA_site4611] | 8.64
19 | AAAGAAGGGAAACACACACACACACCCACAAAAAAA [CACACA_site3766] | 6.87
20 | ACCTAAAATAACTACACACACATAAAAAAAAAAAAA [CACACA_site2529] | 6.49
21 | TTTTTTTTTTATTCTTCACACATTTCCAATAAAAAA [CACACA_site5601] | 6.82
22 | GTTATTATATATATGTGTACTTAAAAATTTTATGTC [XGTACX_site6084] | 7
23 | TATAACAAAAAAAAATAAAAAATAAAACTATATATA [CACACA_negctrl_site504] | 6.32
24 | ATCAAAATTGTCATTACACACCTTTATTTTTATAAT [CACACA_site5071] | 6.84
